# From PubChem BioAssay (Tox21)
# “And” between values parts separate entries of the source, which are not always exact repeats. Identical values can stand only once. Inconclusive means that the source gave no clear call. Such entries were picked first, then a sample of the others. Potencies of inconclusive entries are doubtful fits and often do not repeat. The source made the active and inactive calls. Calls follow the shape of the dose curve; as a rule, active = well fitted curve in the direction sought with a large enough effect in the repeat runs; inconclusive = weak or mixed curves; inactive = no such curve, though single readings can be large; an effect the other way counts as inactive or inconclusive.
# What was measured:
# [1] = qHTS RealTime-Glo MT Cell Viability Assay in HEK293 cells - 16 hour (AID 1224872); also: nearly all actives have a fitted effect of over 50% in size
# How it was run: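 HEK293 cells seeded with NanoLuc/prosubstrate reagent, rested 5 h at 37 C, then dosed and kept at 37 C up to 40 h. Nonlytic real-time luminescence from viable cells read at 0, 8, 16, 24, 32 and 40 h.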
# [2] = qHTS RealTime-Glo MT Cell Viability Assay in HepG2 cells - 8 hour (AID 1224873); also: nearly all actives have a fitted effect of over 55% in size
# How it was run: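 Real-time viability: cells seeded at 600 per well together with NanoLuc and cell-permeant prosubstrate, compounds added after 5 h incubation. Luminescence tracked at 0, 8, 16, 24, 32 and 40 h of exposure.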
# [3] = qHTS RealTime-Glo MT Cell Viability Assay in HEK293 cells - 40 hour (AID 1224874); details: RealTime-Glo luminescence; max response: stronger effect = lower value; also: nearly all actives have a fitted effect of over 50% in size; as to max response: % is scaled to controls: 0 for no effect and ±100 for the full control effect
# How it was run: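 Kinetic, non-lysing viability readout. Seed HEK293 (600/well) with reagent, incubate 5 h at 37 C/5% CO2, pin 23 nL compound in DMSO, incubate at 37 C, read luminescence at 0, 8, 16, 24, 32, 40 h.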
# [4] = A CellTox Green Cytotoxicity Assay to monitor cytotoxicity in HEK293 cells - 24 hour (AID 1224875); also: nearly all actives have a fitted effect of over 45% in size
# How it was run: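 Real-time, in one plate: 600 HEK293 cells/well with dead-cell DNA dye, pinned compound after 5 h, 37 C incubation over 40 h; viable cells give no appreciable fluorescence.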
# [5] = A CellTox Green Cytotoxicity Assay to monitor cytotoxicity in HepG2 cells - 16 hour (AID 1224876); also: nearly all actives have a fitted effect of over 45% in size
# How it was run: (§1)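 Cytotoxicity was tracked as dead-cell DNA fluorescence in HepG2 cells treated with test compounds at 37 C; each time-point value comes from one kinetic series spanning 0, 8, 16, 24, 32 and 40 h.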
# [6] = A CellTox Green Cytotoxicity Assay to monitor cytotoxicity in HepG2 cells - 24 hour (AID 1224878); also: nearly all actives have a fitted effect of over 45% in size; as to Cytotoxicity: % is scaled to controls: 0 for no effect and ±100 for the full control effect
# How it was run: as §1
# [7] = A CellTox Green Cytotoxicity Assay to monitor cytotoxicity in HepG2 cells - 40 hour (AID 1224879); also: nearly all actives have a fitted effect of over 40% in size
# How it was run: as §1
# [8] = qHTS RealTime-Glo MT Cell Viability Assay in HepG2 cells - 32 hour (AID 1224877); also: nearly all actives have a fitted effect of over 55% in size
# How it was run: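 HepG2 cells (600/well) were dispensed with RealTime-Glo reagents, incubated 5 h at 37 °C, then treated with compounds in DMSO for up to 40 h. Nonlytic NanoLuc luminescence reflecting viable cells was read at each stated time point.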
# Potency is read from the fitted curve at half-maximal effect; tags tell the direction and shape of the fitted curve.
smiles,measurement,setting,value
c1ccc2[nH]c(-c3cscn3)nc2c1,Potency,[1],"inconclusive: 39.1 µM [cytotoxic, partial curve] and inconclusive: 24.5 µM [cytotoxic, partial curve] and inconclusive: 26.8 µM [cytotoxic, partial curve, poor fit]"
same,Potency,[2],inactive
same,Potency,[3],"inconclusive: 39.1 µM [cytotoxic, partial curve, poor fit] and inconclusive: 27.5 µM [cytotoxic, partial curve]"
c1ccc2sc(SSN3CCOCC3)nc2c1,Potency,[1],"inconclusive: 54.9 µM [cytotoxic, single point]"
same,Potency,[2],"inconclusive: 54.8 µM [falling, single point] and inconclusive: 54.9 µM [falling, single point]"
same,Potency,[4],"active: 38.8 µM and inconclusive: 54.9 µM [activator, single point]"
same,Potency,[5],"inconclusive: 54.8 µM [activator, single point] and inconclusive: 54.9 µM [activator, single point]"
same,Potency,[6],"inconclusive: 54.8 µM [activator, single point]"
Cc1ccc(O)c(N)c1,Potency,[1],"inconclusive: 55 µM [cytotoxic, single point]"
same,Potency,[2],inactive
same,Potency,[3],"inconclusive: 7.77 µM [rising, partial curve]"
same,Potency,[6],"inconclusive: 55 µM [activator, single point]"
same,Potency,[7],"inconclusive: 55 µM [activator, single point]"
C=CC(=O)OCC(CO)(COC(=O)C=C)COC(=O)C=C,Potency,[1],"active: 5.51 µM and inconclusive: 12.3 µM [cytotoxic, full curve, poor fit]"
same,Potency,[2],"inconclusive: 8.74 µM [falling, full curve] and inconclusive: 6.17 µM [falling, full curve]"
same,Potency,[3],"inconclusive: 12.3 µM [cytotoxic, full curve, poor fit]"
same,Potency,[4],"inconclusive: 55.1 µM [activator, single point] and active: 43.6 µM"
same,Potency,[5],"inconclusive: 61.7 µM [activator, single point]"
CCOC(=O)c1nc(C(Cl)(Cl)Cl)n(-c2ccc(Cl)cc2Cl)n1,Potency,[1],inactive
same,Potency,[2],"inconclusive: 54.9 µM [falling, single point]"
same,Potency,[8],"inconclusive: 54.9 µM [cytotoxic, partial curve, poor fit]"
same,Potency,[6],inactive
CCCCCCCCCCCCOCCOCCOCCOCCOCCOCCOCCOCCOCCO,Potency,[1],active: 6.01 µM
same,Potency,[2],"inconclusive: 23.9 µM [falling, partial curve]"
same,Potency,[3],active: 4.77 µM
same,Potency,[8],"inconclusive: 21.3 µM [cytotoxic, partial curve, poor fit]"
CCCOC(=O)c1cc(O)c(O)c(O)c1,Potency,[1],"inconclusive: 54.7 µM [cytotoxic, single point] and inconclusive: 54.9 µM [cytotoxic, single point]"
same,Potency,[2],"inconclusive: 43.6 µM [falling, partial curve, poor fit]"
same,Potency,[3],active: 48.7 µM and active: 38.9 µM
same,Potency,[4],inactive
same,Potency,[5],inactive
Cc1nc2ccccn2c(=O)c1CCN1CCC(C(=O)c2ccc(F)cc2)CC1,Potency,[1],active: 4.77 µM
Cc1oc(C)c(C(=O)Nc2ccccc2)c1C,Potency,[1],active: 34.7 µM
same,Potency,[3],active: 24.5 µM
O=C1c2ccccc2C(=O)c2cc(S(=O)(=O)O)ccc21,Potency,[1],"inconclusive: 55.1 µM [rising, partial curve]"
same,Potency,[3],"inconclusive: 55.1 µM [rising, partial curve]"
COC(=O)C1=C(C)NC(C)=C(C(=O)OCCc2ccc(N3CCN(C(c4ccccc4)c4ccccc4)CC3)cc2)C1c1cccc([N+](=O)[O-])c1 (configuration not stated),Potency,[1],inactive
same,max response,[3],inactive: 0.767%
CCO[C@@H]1O[C@H](C(COCc2ccccc2)OCc2ccccc2)[C@H](OCc2ccccc2)[C@H]1O (some centres not stated),Potency,[1],"inconclusive: 19 µM [cytotoxic, partial curve]"
same,Potency,[2],"inconclusive: 16.9 µM [falling, partial curve]"
same,Potency,[3],"inconclusive: 19 µM [cytotoxic, partial curve]"
same,Potency,[7],"inconclusive: 26.8 µM [activator, single point]"
